From PubChem BioAssay AID1768 (National Center for Advancing Translational Sciences (NCATS), 2009)
Among all 270,000 compounds or so, about 620 (0.23%) were called active. Inconclusive results, whose numbers are uncertain, are shown with a selection of clear calls. Calls follow the shape of the dose curve; as a rule, active = well fitted inhibition curve with a large enough effect in the polarisation, with a control signal flat (not every such curve was filed as active); inconclusive = small, poorly fitted or top-dose-only effect, or effect the other way, or a change in a side signal; inactive = no such curve, though single readings can be large or run the other way; the % refers to the polarisation. A potency beside an inconclusive call is a rough fit, not a confirmed value. A note “side channel” means that the fit belongs to a control or component signal, not to the main read-out.

Molecular target: Menin (Homo sapiens) (UniProt O00255)
Chain of UniProt O00255 (O00255 whole entry, looked up): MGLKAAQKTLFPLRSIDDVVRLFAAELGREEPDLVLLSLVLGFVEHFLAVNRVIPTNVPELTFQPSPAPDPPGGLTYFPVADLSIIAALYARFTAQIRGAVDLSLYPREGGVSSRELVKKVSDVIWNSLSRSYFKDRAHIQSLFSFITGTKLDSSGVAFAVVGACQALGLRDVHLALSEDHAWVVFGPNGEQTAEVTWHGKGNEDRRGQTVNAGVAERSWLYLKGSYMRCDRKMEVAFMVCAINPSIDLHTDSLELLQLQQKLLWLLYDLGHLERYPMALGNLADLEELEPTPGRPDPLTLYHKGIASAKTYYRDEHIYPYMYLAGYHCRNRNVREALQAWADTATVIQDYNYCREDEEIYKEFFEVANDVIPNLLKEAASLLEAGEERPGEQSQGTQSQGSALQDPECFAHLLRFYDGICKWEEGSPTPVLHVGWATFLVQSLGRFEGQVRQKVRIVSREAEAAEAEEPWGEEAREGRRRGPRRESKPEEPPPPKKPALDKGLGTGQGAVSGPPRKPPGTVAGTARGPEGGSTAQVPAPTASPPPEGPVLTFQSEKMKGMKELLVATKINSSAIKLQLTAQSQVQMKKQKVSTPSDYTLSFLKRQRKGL
Assay: qHTS Assay for Inhibitors Targeting the Menin-MLL Interaction in MLL Related Leukemias: Competition With Texas Red Labeled MLL-derived Mutant Peptide
Settings: fluorescence polarization; series mostly up to 61.6 µM
Potency is read from the fitted curve at half-maximal effect; tags tell the direction and shape of the fitted curve or compound fluorescence and quenching.

Potency, inactive:
Cc1ccccc1Nc1oc(-c2ccccc2)nc1-c1ccccc1
CCn1ncc(C(=O)Nc2ccc(S(=O)(=O)N3CCCC3)cc2)c1C
C=CCC(O)c1ccccc1 (stereo not drawn)
CCC(C)(C)n1nnnc1C(C(C)C)N(Cc1ccco1)Cc1cc2cc3c(cc2[nH]c1=O)OCO3 (stereo not drawn)
CC1C/C(=C/c2cccn2C)C(=O)/C(=C/c2cccn2C)C1 (stereo not drawn)
COc1ccc(-c2noc(Cc3cccs3)n2)cc1
C=CCn1c2ccccc2c2nnc(SCC(=O)NC(C(=O)OC)C(C)C)nc21 (stereo not drawn)
COc1ccc(CC(=O)N2CCN(c3ccccn3)CC2)cc1OC
O=C(NCCN1CCCCC1)c1cc2ccccc2[nH]1
CCCCC/C(C=O)=C/c1ccccc1
Cc1cc(F)c(F)c(C(=O)N2CCCCC2C)c1Cl (stereo not drawn)
CSc1nnc(C)c(=O)n1COC(=O)COc1ccccc1C
CCOc1cc(/C=C/c2nc3ccccc3c(=O)[nH]2)cc(Br)c1OC
COC(=O)c1c(NC(=O)Cn2cc([N+](=O)[O-])cn2)sc2c1CCC2
CCN(CC)c1ccc(/C=N/N2CCN(Cc3ccccc3Cl)CC2)cc1
CCOCCCn1c(SCC(=O)Nc2cc(OC)ccc2OC)nc2ccccc2c1=O
CSc1ccc(/C=c2\s/c(=C\C(=O)C(C)(C)C)n(CC(=O)NCCC3=CCCCC3)c2=O)cc1

Potency, inconclusive:
Cc1cc(C(=O)CSc2nnc(-c3ccccc3)n2C)c(C)n1C 0.708 µM [inhibitor, full curve, poor fit]
CC(C)(C)NC(=O)C(c1ccncc1)N(Cc1ccc(F)cc1)C(=O)c1ccc(-c2ccccc2)[nH]1 (stereo not drawn) 2.24 µM [fluorescent, side channel, partial curve]
Cc1ccc(NC(=O)CSc2nncn2-c2ccccn2)cc1Cl 31.6 µM [inhibitor, single point]
Cc1cc(C)cc(N(CCC(=O)Nc2nnc(C)s2)S(=O)(=O)c2ccc(Cl)cc2)c1 3.98 µM [fluorescent, side channel, partial curve]
CN(C1CCCCC1)S(=O)(=O)c1ccccc1 7.94 µM [inhibitor, partial curve]
CN(C)/C=C/C(=O)c1ccc(-c2ccc(Cl)cc2Cl)o1 25.1 µM [quencher, side channel, partial curve]
NC(=O)c1ccc2nc(-c3ccc(Oc4ccc(Cl)cc4)cc3)[nH]c2c1 7.94 µM [quencher, side channel, partial curve]
CCN1C(=O)/C(=C/C=C2\C=CN(CC)c3ccccc32)SC1=S 17.8 µM [fluorescent, side channel, single point]
O=C(CCN1C(=O)/C(=C\c2ccccc2Cl)SC1=S)Nc1cccnc1 17.8 µM [quencher, side channel, single point]
CC(C)COC[C@H](CN(Cc1ccccc1)c1ccccc1)N1CCCC1 12.6 µM [fluorescent, side channel, partial curve]
COc1ccc(C2=Nc3cccc4cccc(c34)N2)cc1 22.4 µM [quencher, side channel, partial curve, poor fit]
Cc1cc(C)c2nc(-c3cccnc3)cc(C(=O)Nc3ccc(S(=O)(=O)Nc4onc(C)c4C)cc3)c2c1 12.6 µM [quencher, side channel, partial curve]
Cc1ccc(NC(=O)COC(=O)CCc2ccccc2)c(Cl)c1 15.8 µM [inhibitor, partial curve, poor fit]
CCN(CC)S(=O)(=O)c1cc(C)ccc1NC(=S)Nc1cccnc1 20 µM [quencher, side channel, single point]
Cc1cc2c(C)nc(-c3ccccc3)nc2o1 22.4 µM [inhibitor, partial curve]
Cc1cc([N+](=O)[O-])nn1CC(=O)Nc1cccc2nonc12 22.4 µM [quencher, side channel, partial curve]
COc1ccc(Br)cc1CN(C)C(=O)c1ccc2c(c1)NC(=O)C(C)S2 (stereo not drawn) 22.4 µM [fluorescent, side channel, partial curve]
CN1C(=O)C(=O)/C(=C(/O)c2ccc(Br)cc2)C1c1ccc(F)cc1 (stereo not drawn) 22.4 µM [quencher, side channel, single point]
COc1cc(C)c(NC(=O)Cc2ccsc2)cc1OC 44.7 µM [inhibitor, partial curve]
CCO[C@@H]1OC(C(=O)NCc2ccccc2)=C[C@H](c2ccccc2)[C@H]1CCCO 14.1 µM [fluorescent, side channel, single point]
CCNS(=O)(=O)c1ccc(NC(=O)Nc2cccc(C(F)(F)F)c2)cc1 11.2 µM [quencher, side channel, partial curve]
CCN(CC)C(=O)c1ccc(Nc2nnc(C)c3ccccc23)cc1 39.8 µM [inhibitor, partial curve]
COc1ccc2nc3cccc(OC)c3nc2c1 14.1 µM [quencher, side channel, partial curve]
COc1cc(/C=C2/SC(=O)NC2=O)ccc1OCc1ccccc1 35.5 µM [quencher, side channel, partial curve]
CNc1nc(-c2ccccc2)nc(-c2ccccc2)c1C#N 17.8 µM [inhibitor, single point]
CCOC(=O)N1CCN(C(=O)c2ccc3c(c2)ncn3C2CCCC2)CC1 39.8 µM [fluorescent, side channel, single point]
Cc1c(Cl)cccc1NCC(=O)Nc1ccc(Cl)cc1F 20 µM [quencher, side channel, partial curve]
N#C/C(=C\c1ccc2c(c1)OCCO2)C(=O)Nc1nccs1 14.1 µM [quencher, side channel, partial curve, poor fit]
CC1CCCCN1S(=O)(=O)c1ccc2[nH]c(=O)cc(C(=O)NCCCN3CCCCCC3)c2c1 (stereo not drawn) 31.6 µM [inhibitor, partial curve]
Cc1ccc(C2C(=O)c3ccccc3C2=O)cc1 39.8 µM [quencher, side channel, single point]
COC(=O)c1cccc(NC(=O)/C=C/c2cccc([N+](=O)[O-])c2)c1 14.1 µM [quencher, side channel, partial curve]
CCC(=O)N1c2ccccc2[C@@H](N(C(C)=O)c2ccccc2)C[C@H]1C 39.8 µM [inhibitor, single point]
COc1ccc(-c2[nH]c(-c3cccc(OC)c3)nc2SCC(=O)NC2CCCC2)cc1 17.8 µM [quencher, side channel, single point]
COc1ccccc1CN(C(=O)CNC(=O)c1ccco1)C(C(=O)NCC1CCCO1)c1ccc(OC)c(OC)c1 (stereo not drawn) 35.5 µM [inhibitor, partial curve]
O=C(O)C1Nc2ccc(Br)cc2C2C=CCC12 (stereo not drawn) 12.6 µM [quencher, side channel, partial curve]
CN1CCc2nc3sc(C(=O)C45CC6CC(CC(C6)C4)C5)c(N)c3cc2C1 10 µM [inhibitor, partial curve]
O=c1c(Cl)c(NCc2ccccc2Cl)cnn1C12CC3CC(CC(C3)C1)C2 5.62 µM [fluorescent, side channel, full curve]
CC1CCCN(c2c([N+](=O)[O-])cc(C(=O)O)cc2[N+](=O)[O-])C1 (stereo not drawn) 17.8 µM [quencher, side channel, partial curve]
NC(=O)c1c(NC(NC(=O)c2ccco2)C(=O)c2ccc(Cl)cc2)sc2c1CCCC2 (stereo not drawn) 28.2 µM [quencher, side channel, single point]
CC(=O)c1sc2nc(CSc3nnnn3-c3ccccc3)[nH]c(=O)c2c1C 12.6 µM [quencher, side channel, partial curve]
CC(C)Oc1cccc(C(=O)C2CCCN(S(=O)(=O)C(C)C)C2)c1 (stereo not drawn) 14.1 µM [fluorescent, side channel, partial curve]
O=C(NC(=S)Nc1nc(-c2ccc(Br)cc2)cs1)c1ccco1 25.1 µM [inhibitor, single point]
O=C(C#Cc1ccccc1)c1ccc([N+](=O)[O-])cc1 14.1 µM [quencher, side channel, partial curve]
Cn1c(=O)cc(Nc2ccc(Cl)cc2)[nH]c1=O 28.2 µM [quencher, side channel, partial curve]
Cc1c(C(=N)C(C#N)C#N)c(=N)oc2c1ccc1ccccc12 28.2 µM [quencher, side channel, single point]
COC(=O)c1cccc(Nc2cc(C)nc(-c3ccccc3O)n2)c1 3.16 µM [quencher, side channel, full curve]
